Laboratory results from PubChem BioAssay AID1347120 (National Center for Advancing Translational Sciences (NCATS), 2019).
Hit rate of the full screen: of about 390,000 compounds, about 930 (0.24%) were called active. The inconclusive results got no clear call from the source; some entries with a clear call stand among them for comparison. Calls follow the shape of the dose curve; as a rule, active = well fitted activation curve with a large enough effect; inconclusive = small, poorly fitted or top-dose-only effect; inactive = no such curve, though single readings can be large or run the other way. Potencies of inconclusive entries are doubtful fits and often do not repeat.

Experiment: qHTS for Suppressors of FUS Proteinopathy: Primary screen using FUS-linked yeast assay; also: nearly all actives have a fitted effect of over 55% in size;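 as to growth rescue (activation): plate controls were DMSO vehicle for no effect and reference control for full effect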
Conditions: S. cerevisiae FUS-expressing, OD600, 24 h; Potency: growth rescue; growth rescue (activation): at 76.6 µM (top of the series)
How it was run: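 Compound concentration series was pinned onto galactose-induced FUS-expressing yeast seeded at OD 0.005. Plates sat 24hr at 30C; absorbance at 600 nm gave growth. DMSO served as background control.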
Potency is read from the fitted curve at half-maximal effect; tags tell the direction and shape of the fitted curve.

Row | Structure (SMILES) | Potency | growth rescue (activation)
1 | COc1cc(NC(=O)C/C(C)=N/NC(=O)c2ccccn2)c(OC)cc1Cl | inconclusive: 50.1 µM [activator, single point] | 
2 | C#CCNC(=O)C[C@@H]1C(=O)N(CCc2ccc(Cl)cc2)/C2=C/CCCCC[C@@]21C(=O)OCC | inconclusive: 31.6 µM [activator, single point] | 
3 | Cc1ccc2cc(C(c3nnnn3C3CCCC3)N(Cc3ccco3)Cc3cccs3)c(=O)[nH]c2c1 (stereo unspecified) | inconclusive: 14.1 µM [activator, partial curve, poor fit] | 
4 | Cc1ccc(S(=O)(=O)CC(=O)Nc2nc(-c3ccccc3)cs2)cc1 | inactive | 
5 | O=C(c1ccccc1-c1ncc[nH]1)N1CCc2c([nH]c3ccccc23)C1c1ccccn1 (stereo unspecified) | inconclusive: 44.7 µM [activator, partial curve, poor fit] | 
6 | CCc1ccc(NC(=O)CC2C(=O)N(c3ccc(OC)cc3)C(=O)N2CCOC)cc1 (stereo unspecified) | inactive | 
7 | COc1ccccc1NC(=O)c1ccc(-c2ccccc2[N+](=O)[O-])o1 | inactive | 
8 | COc1ccc(CNC(=O)c2cc(-c3ccc(OC)c(OC)c3)on2)cc1 | inactive | 
9 | COC(=O)C1(C(=O)OC)CCCCN(S(=O)(=O)c2ccc(C)cc2)CCC1 | inactive | 
10 | O=C(CC1C(=O)N(c2ccccc2)C(=O)N1Cc1ccco1)Nc1ccccc1 (stereo unspecified) | inconclusive: 31.6 µM [activator, single point] | 
11 | CC(=O)C1=C(O)C(=O)N(c2cc(C(C)(C)C)on2)C1c1ccc(Br)cc1 (stereo unspecified) | inconclusive: 56.2 µM [activator, partial curve, poor fit] | 
12 | Cc1cc(C(=O)CN2C(=O)NC(c3ccccc3)(c3ccccc3)C2=O)c(C)n1Cc1ccccc1 | inconclusive: 5.01 µM [activator, full curve] | 
13 | O=C(CSc1nnc(SCc2cccc3ccccc23)s1)N/N=C/C=C/c1ccccc1[N+](=O)[O-] | inconclusive: 6.31 µM [activator, full curve, poor fit] | 
14 | O=C(CSc1ccc([N+](=O)[O-])cc1)OCC(=O)N1CCCC1=O | inactive | 
15 | COc1cccc(NC(=O)Cn2c(=O)n(Cc3ccco3)c(=O)c3cc(OC)c(OC)cc32)c1 | inconclusive: 39.8 µM [activator, single point] | 
16 | Cc1ccc(S(=O)(=O)Nc2ccc(Nc3nccn4c(-c5ccc6ccccc6c5)cnc34)cc2)cc1 | inconclusive: 22.4 µM [activator, single point] | 
17 | CC(=O)N(c1ccccc1)C1SC(=O)N(c2ccccc2)C1=O (stereo unspecified) | inconclusive: 6.31 µM [activator, partial curve, poor fit] | 
18 | Cc1ccc(NCc2cccn2-c2nnc(N3CCC(C(=O)NCc4ccc(F)cc4)CC3)s2)cc1 | inconclusive: 35.5 µM [activator, single point] | 
19 | CCn1ccc2cc(S(=O)(=O)N3CCC(C(=O)NCc4ccc(F)cc4)CC3)ccc21 | inconclusive: 50.1 µM [activator, single point] | 
20 | CCOC(=O)[C@H]1[C@H]2COc3ccc(C)cc3[C@@H]2N2C(=O)CN(Cc3ccccc3)C(=O)[C@@]12C | inconclusive: 31.6 µM [activator, partial curve, poor fit] | 
21 | COc1ccc(NC2=NCC(=O)N2Cc2cccs2)cc1 | inconclusive: 6.31 µM [activator, single point] | 

Row | Structure (SMILES) | Potency | growth rescue (activation)
22 | Cc1ccc(OCc2cc(=O)n3ccsc3n2)c(NC(=O)c2ccco2)c1 | inactive | 
23 | CN(c1ccc(C(=O)NC2CC3CCC2C3)cc1)S(C)(=O)=O (stereo unspecified) |  | inconclusive: 73.5% [activator]
24 | Cc1ccc(S(=O)(=O)N2CCCCC2)cc1NC(=O)C1CC(=O)N(Cc2ccccc2)C1 (stereo unspecified) | inconclusive: 56.2 µM [activator, single point] | 
25 | CCC(=O)N1Cc2cc(C(=O)Nc3nccs3)nc(-c3cccc(-c4ccccc4OC)c3)c2[C@@H]1CCO | inconclusive: 14.1 µM [activator, partial curve, poor fit] | 
26 | Cn1cc(C(=O)c2ccc(Cl)cc2Cl)cc1C(=O)N/N=C(\N)COc1ccc(Cl)cc1 | inconclusive: 14.1 µM [activator, partial curve, poor fit] | 
27 | Cc1cc(O)c(C(=O)/C=C/c2cccc([N+](=O)[O-])c2)c(=O)o1 | inconclusive: 0.891 µM [activator, full curve, poor fit] | 
28 | C[C@H](NC(=O)c1nc[nH]c1C(=O)NCc1ccc(CNC(=O)OC(C)(C)C)cc1)C(=O)OC(C)(C)C | inconclusive: 22.4 µM [activator, single point] | 
29 | CC1=C(C(=O)N(C(C)C)C(C)C)CC(CC(=O)NCc2cccc3ccccc23)C(=O)N1Cc1ccc(F)cc1 (stereo unspecified) | active: 17.8 µM | 
30 | Cc1cccc(NC(=O)c2c(N)sc3c2CCC(C)C3)c1 (stereo unspecified) | inactive | 
31 | COc1ccc(C(=O)NCC(c2ccco2)S(=O)(=O)c2cccs2)cc1 (stereo unspecified) | inactive | 
32 | C[N+]1=C(/C=C/Nc2ccccc2Cl)C(C)(C)c2ccccc21 | inactive | 
33 | Cc1ccccc1Nc1c(-c2ccc(N3CCOCC3)cc2)nc2ccc(Cl)cn12 | inconclusive: 31.6 µM [activator, single point] | 
34 | COCCN(C(=O)Cc1cccs1)C(C(=O)NCc1ccc(OC)cc1)c1ccc(C(C)C)cc1 (stereo unspecified) | inconclusive: 25.1 µM [activator, partial curve] | 
35 | O=C(Cc1ccccc1)Nc1ccc2oc(-c3ccncc3)nc2c1 | inconclusive: 6.31 µM [activator, full curve] | 
36 | O=C(Nc1ccc(Cl)cc1)C(Cl)C(=O)c1ccccc1 (stereo unspecified) | inactive | 
37 | CCOC(=O)CNC(=O)CSc1nc(C)cc(C)c1C#N | inactive | 
38 | CCOc1ccc(NC(=S)N2CCC(C(=O)c3ccc(F)cc3)CC2)cc1 | inconclusive: 10 µM [activator, partial curve, poor fit] | 
39 | CCOc1ccc(S(=O)(=O)NCC(c2ccc(N(C)C)cc2)N2CCc3ccccc32)cc1 (stereo unspecified) | inconclusive: 39.8 µM [activator, single point] | 
40 | COc1ccc(-c2csc3nc[nH]c(=O)c23)cc1OC | inactive | 
41 | CCOC(=O)CC1=C(C(=O)OCC)C(c2ccc(OC)c(OC)c2)C(C#N)=C(N)O1 (stereo unspecified) | inconclusive: 31.6 µM [activator, single point] | 
